Test results reported in ChEMBL document CHEMBL1201862, “PubChem BioAssay data set” (2004).

The molecules below were run on NCI-H322M (assay: DTP human tumour cell line panel, 48 h).
For `O=c1c2ccccc2nc2n1-c1ccccc1SC2`, the GI50 was inactive: > 100 µM.
For `COc1ccc(-c2c(C3=NCCN3)nnn2-c2ccccc2)cc1`, the GI50 was inactive: > 100 µM.
For `C=CC(Cl)(CBr)CCC(Br)C(C)(C)Cl` (stereo not given), the GI50 was inactive: 22.4 µM.
`COc1ccccc1CC1(O)OC(=O)c2ccccc21` (stereo not given) was tested, and the GI50 was inactive: > 100 µM.
`O=C1C=C(Br)C(=O)C(Br)=C1` was tested, and the GI50 was inactive: > 100 µM.
For `Cc1cc(-c2cccc3ccccc23)c(C#N)c(=S)n1C1OC(CO)C(O)C(O)C1O` (stereo not given), the GI50 was inactive: > 100 µM.
With `CC12CCC(C(Nc3ccccn3)C1=O)C2(C)C` (stereo not given) the GI50 was inactive: > 100 µM.
In the case of `O=C1CC(=O)NC(NNS(=O)(=O)c2ccc(Cl)cc2)=N1`, the GI50 is reported as inactive: > 100 µM.
With `CCCCS(=O)(=O)CCC(N)C(=O)O` (stereo not given) the GI50 was inactive: > 100 µM.
In the case of `OCC[N+]12CCCN1CCC2`, the GI50 is reported as inactive: > 100 µM.
In the case of `COC(=O)C1=C(OC(=O)/C(=C/c2ccccc2)c2ccc(Cl)cc2)C(C(=O)OC)[C@@]2(O)[C@@H](C(=O)OC)[C@H](C)C[C@@H]1[C@@H]2C(=O)OC` (stereo not given in full), the GI50 is reported as inactive: > 100 µM.
For `Cc1nc2ccc(/N=N/N(C)C)cc2[nH]1`, the GI50 was inactive: > 100 µM.
`COC(=O)c1ccc2c(c1)CC1(C2)Cc2ccc3c(c2C1)CCC3` (stereo not given) was tested, and the GI50 was inactive: 58.5 µM.
In the case of `O=S1OC(c2ccccc2)(c2ccccc2)C(c2ccccc2)(c2ccccc2)O1`, the GI50 is reported as inactive: > 100 µM.
`O=C1NC(=O)C(CC(C(=O)C(=O)Nc2ccccc2Cl)C(=O)c2ccc3ccccc3c2)C(=O)N1` (stereo not given) was tested, and the GI50 was inactive: > 100 µM.
For `COC(=O)C1=C(SC)SC2(C(=O)OC)C3C=C(C)C4C(N13)C42C(=O)OC` (stereo not given), the GI50 was inactive: > 100 µM.
For `CN(CC(=O)O)c1ncc2c(n1)-c1ccccc1SC2`, the GI50 was inactive: > 100 µM.
With `Cc1ccc(C2[C@H]3C(=O)N(c4ccc(Cc5ccc(N6C(=O)[C@@H]7ON(c8ccccc8)C(c8ccc(C)cc8)[C@@H]7C6=O)cc5)cc4)C(=O)[C@H]3ON2c2ccccc2)cc1` (stereo not given in full) the GI50 was inactive: > 100 µM.
`O=C1C=C2C(=NC34CCCCC3C(c3ccccc3)C3=C(c5ccccc5CC3)N24)c2ccccc21` (stereo not given) was tested, and the GI50 was inactive: > 10 µM.
With `COC(COC(=O)N1CCN(C=O)CC1)C1=C(N2CC2)C(=O)C(C)=C(N2CC2)C1=O` (stereo not given) the GI50 was inactive: 1.32 µM.
For `CC(C)=CCC(OC(=O)C=C(C)C)c1cc(O)c2c(c1O)C(=O)C=CC2=O` (stereo not given), the GI50 was inactive: 3.02 µM.
With `CC(=O)O[C@H]1[C@@H](N2CCN(C)CC2)C[C@H]2[C@@H]3CC=C4C[C@@H](N5CCCC5)CC[C@]4(C)[C@H]3CC[C@@]21C` the GI50 was inactive: 49.3 µM.
For `CCOC(=O)/C=C(\C)c1ccc(OC)cc1`, the GI50 was inactive: > 100 µM.
In the case of `CC(C)(C)c1ccc(O)c(CN(Cc2c(O)ccc3ccccc23)C2CCCCC2)c1`, the GI50 is reported as inactive: 18.2 µM.
With `COC(=O)c1cc2c(nc1C)-c1ccccc1OS2(=O)=O` the GI50 was inactive: > 100 µM.
`NCCSc1nc2ccccc2c(=O)n1-c1ccccc1` was tested, and the GI50 was inactive: > 100 µM.
With `CC(C)[C@H](NC(=O)[C@H](C(C)C)N(Cc1ccccc1)Cc1ccccc1)C(=O)N(C)[C@H](C(=O)N1CCC[C@H]1C(=O)N(C)[C@H](C)C(=O)NCc1ccc(Cl)cc1)C(C)C` (Bn2Val-V[NMeV]P[dNMeA]-{NH(4-Cl-benzyl)}) the GI50 was inactive: 4.17 µM.
In the case of `COc1cc2cc(C(=O)N3CC(CCl)c4ccc(O)cc43)[nH]c2c(OC)c1OC` (stereo not given), the GI50 is reported as active: 0.0235 µM.
In the case of `COc1ccc(/C(=N/N=c2[nH]c3ccccc3[nH]2)C(=O)O)cc1`, the GI50 is reported as inactive: > 100 µM.
For `O=c1c(O)c(-c2cc(O)c(O)cc2O)oc2cc(O)c(C3OC(CO)C(O)C(O)C3O)c(O)c12` (stereo not given), the GI50 was inactive: > 100 µM.
`O=C1CC(c2cccc(F)c2)Nc2cc3c(cc21)OCO3` (stereo not given) was tested, and the GI50 was active: 0.0483 µM.
For `Cc1ccc(/C(=C\C(=O)C(=O)NC23CC4CC(CC(C4)C2)C3)Sc2ccccc2)cc1`, the GI50 was inactive: > 10 µM.
For `Nc1ccc2ccc(N3CCNCC3)nc2n1`, the GI50 was inactive: 28.4 µM.
With `CC1CCCCc2nc3c(c(=O)n21)CCCC3` (stereo not given) the GI50 was inactive: > 100 µM.
In the case of `CCCCc1ccc(Nc2nc(OC)c3ncn(C4CC(O)C(CO)O4)c3n2)cc1` (stereo not given), the GI50 is reported as inactive: 16.7 µM.
With `Cc1nn(C(=O)c2ccncc2)c2c1C(c1ccc([N+](=O)[O-])cc1)SC(=N)N2` (stereo not given) the GI50 was inactive: > 100 µM.
`Cc1c(/N=C/C=C/c2ccccc2)c(=O)n(-c2ccccc2)n1C` was tested, and the GI50 was inactive: > 100 µM.
With `Cc1c2n(c(=O)[nH]c1=O)C1OC(CO)C(O2)C1N=[N+]=[N-]` (stereo not given) the GI50 was inactive: > 100 µM.
For `Nc1nc(O)c2nc(N)n(Cc3ccccc3)c2n1`, the GI50 was inactive: 39.4 µM.
For `CN1CCN(c2nc3ccccc3nc2C(=O)c2ccc(Cl)cc2)CC1`, the GI50 was inactive: 37.3 µM.
In the case of `COc1ccc(-c2cc(=O)c3c(O)cccc3o2)c(OC)c1OC`, the GI50 is reported as inactive: > 100 µM.
In the case of `O=C(O)/C(=C/c1ccccc1)c1ccccc1`, the GI50 is reported as inactive: > 100 µM.
With `CC1(C)COC(c2cccc3c2C(=O)c2cccc(Cl)c2-3)=N1` the GI50 was inactive: 55.5 µM.
In the case of `CC(C)CN(CC#N)CC(C)C`, the GI50 is reported as inactive: > 100 µM.
For `CC1=C(Cl)C=CP(=O)(Oc2ccccc2)C1` (stereo not given), the GI50 was inactive: > 100 µM.
For `O=C(Nc1ccccc1)N1CCN(C(=O)Nc2ccccc2)C1=S`, the GI50 was inactive: 40.4 µM.
`CCOC(=O)c1nc2ccccc2nc1Nc1ccc(Cl)c(Cl)c1` was tested, and the GI50 was inactive: 71.8 µM.
`COc1ccc(N2C(N)=C(C#N)C(C#N)(C#N)C2c2cccc([N+](=O)[O-])c2)cc1` (stereo not given) was tested, and the GI50 was inactive: 18.5 µM.
`Nc1cc(C2CCCc3c2[nH]c2ccccc32)ccc1O` (stereo not given) was tested, and the GI50 was inactive: > 100 µM.
For `C[C@@H]1C[C@@H]([C@H](O)CC2CC(=O)NC(=O)C2)C(=O)[C@@H](C)C1` [CYCLOHEXIMIDE], the GI50 was active: 0.0485 µM.
With `Cc1cn(C2CC(O)C(Cn3nncc3Cn3ncc(=O)[nH]c3=O)O2)c(=O)[nH]c1=O` (stereo not given) the GI50 was inactive: > 100 µM.
With `COC(=O)C1=C(C(=O)OC)C(Cc2ccccc2)(OO)OC1=O` (stereo not given) the GI50 was inactive: 19.7 µM.
With `CCCCCCCCCCCCC(Br)C(=O)SCCNC(=O)CCNC(=O)[C@@H](O)C(C)(C)COP(=O)(O)OP(=O)(O)OCC1OC(n2cnc3c(N)ncnc32)C(O)C1OP(=O)(O)O` (stereo not given in full) the GI50 was inactive: > 56.5 µM.
For `O[C@H]1[C@H]2[C@H](O)CCCN2C[C@H]1O` [TRIDOLGOSIR], the GI50 was inactive: > 100 µM.
In the case of `Cc1cccc(C)c1NC(=O)C(=O)C(C#N)c1ccccc1Cl` (stereo not given), the GI50 is reported as inactive: > 100 µM.
With `CN[C@@H](C)[C@@H](NC)c1ccccc1` the GI50 was inactive: > 100 µM.
With `CN(CCCN(C)Cc1ccc(Cl)c(Cl)c1)CCN1CCCC1` the GI50 was inactive: 15.6 µM.
With `Cc1ccc(NC(=O)CC/C(CC(=O)C(C)(C)C)=N/NC(=O)C(N)=O)cc1C` the GI50 was inactive: > 100 µM.
With `CCOc1ccc(N/C(=C(/C(Cl)=C(/Cl)N2CCCCC2)[N+](=O)[O-])n2nnc3ccccc32)cc1` the GI50 was inactive: 17.2 µM.
For `CCN(N=O)C1C2(CCCC2)NC(=O)C12CCCC2` (stereo not given), the GI50 was inactive: > 100 µM.
With `[O-][Cl+3]([O-])([O-])O.c1ccc(/N=c2\snc(-c3ccccc3)s2)cc1` the GI50 was inactive: > 100 µM.
With `C=C(C)C1CCC(C(=O)O)CC1` (stereo not given) the GI50 was inactive: > 100 µM.
In the case of `CC(C)(C)OC(=O)NC(Cc1ccc(OC(C)(C)C)cc1)C(=O)N[C@H]1CC[C@H](C(=O)O)C1` (stereo not given in full), the GI50 is reported as inactive: > 100 µM.
In the case of `COC(=O)c1nsc(OC)c1Cl`, the GI50 is reported as inactive: > 100 µM.
With `O=[N+]([O-])c1cc(Cl)ccc1S(=O)(=O)c1cc(Cl)cc2c1NCCC2` the GI50 was inactive: 55.7 µM.

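The compound was tested at five concentrations on cells cultured in 96-well plates, with a 48-hour exposure period. Abbreviation: GI50, concentration required for 50% inhibition of growth.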 Activity calls are given as the source filed them. No stated cut-off is given here; in the data, active = GI50 up to about 1.1 µM and inactive = higher. Square brackets hold non-standard residues; d marks the D form. Peptide text beside a SMILES is read from it. * marks the point of attachment. Bn2Val = CC(C)[C@@H](C(=O)*)N(Cc1ccccc1)Cc1ccccc1; NH(4-Cl-benzyl) = Clc1ccc(CN*)cc1; NMeV = CN[C@H](C(=O)O)C(C)C; dNMeA = CN[C@H](C)C(=O)O
